# Reference: PubChem BioAssay AID1508623 (National Center for Advancing Translational Sciences (NCATS), 2021)
# About 450 (0.94%) of roughly 48,000 compounds were called active. Inconclusive results (about 19%) are left out. Calls follow the shape of the dose curve; as a rule, active = well fitted inhibition curve with a large enough effect; inconclusive = small, poorly fitted or top-dose-only effect; inactive = no such curve, though single readings can be large or run the other way. This is one part of the list.
# Assay: Primary qHTS for Identification of Small Molecule Inhibitors of Huntingtin Promoter Activity; also: nearly all actives have a fitted effect of over 50% in size
# Details: HEK293 HTT promoter firefly luciferase reporter (activity 0% = vehicle and -100% = no light), 24 h; series mostly up to 57.5 µM; activity change, negative = inhibition: at the top concentration
# Outline: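 Firefly luciferase signal from promoter-reporter HEK293 cells was scaled between vehicle (0%) and zero RLU (-100%). Compounds were tested at final concentrations of up to 57.5 uM over 24 h at 37 degrees C. PTC124 at 50 uM final served as control inhibitor.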
row,SMILES,"activity change, negative = inhibition"
1,CCc1ccc(OCC(=O)N(Cc2ccco2)Cc2ccco2)cc1,inactive: -11.8%
2,O=C(C1CCN(c2nc3ccccc3[nH]2)CC1)N1CCN(c2ccccc2)CC1,inactive: -7.06%
3,Cc1cc(C)cc(OCc2cc(=O)n3cc(C)sc3n2)c1,inactive: -1.8%
4,COc1nc(-c2ccc3c(c2)OCO3)n(-c2ccc(NC(=O)CSc3ccccc3)cc2)n1,inactive: 2.59%
5,Cc1cccc(NCc2nnc3n2CCCCC3)c1C,inactive: -7.14%
6,CCCN1CCN(CCCNC(=O)c2ccc3c(c2)sc2nc(-c4ccc(C)cc4)cn23)CC1,inactive: -29.9%
7,CN(C(=O)c1ccc2c(c1)N(Cc1ccccc1F)C(=O)c1ccccc1S2)C1CCCCC1,inactive: 2.48%
8,CCOC(=O)c1c(C)n(-c2ccccc2)c2ccc(OC(=O)c3ccc(OCC)c(OCC)c3)cc12,inactive: -20.2%
9,Cc1cccc(-c2noc(-c3ccc(NCC4CCCO4)c([N+](=O)[O-])c3)n2)c1 (configuration not stated),inactive: 14.6%
10,O=C(Nc1c(C(=O)N2CCC(N3CCCCC3)CC2)oc2ccccc12)c1c(F)cccc1F,inactive: -9.12%
11,CN(C)S(=O)(=O)c1ccc2c(c1)N(CC(=O)N1CCCCC1)CCS2,inactive: -7.17%
12,Cc1ccc(-c2nnc(Nc3ccc(Cl)cc3)c3ccccc23)cc1S(=O)(=O)N1CCOCC1,inactive: -27.9%
13,Cn1cc(S(=O)(=O)c2ccccc2)c(=O)c2cc(F)c(N3CCN(c4ccc(F)cc4)CC3)cc21,inactive: -6.94%
14,CCOc1ccc(CCNC(=O)C(C)n2nc(C)n3c(cc4occc43)c2=O)cc1OCC (configuration not stated),inactive: -19.9%
15,Cc1ccc(Cl)cc1N1CCN(C(=O)c2cn(C)c3ccc(S(=O)(=O)N(C)C4CCCCC4)cc3c2=O)CC1,inactive: -2.32%
16,CC(=O)Nc1ccc(NC(=O)C(Cc2ccccc2)N2Cc3ccccc3C2=O)cc1 (configuration not stated),inactive: -13.5%
17,Cc1cccc(N2CCN(C(=O)c3c(C)oc4nc(C)nc(N5CCCC5)c34)CC2C)c1 (configuration not stated),inactive: -22.1%
18,Cc1ccc(NC(=O)Cn2c(=O)n(CCC(=O)NCCc3ccccc3)c(=O)c3ccccc32)cc1,inactive: 1.83%
19,O=C(Cn1cnc(S(=O)(=O)N2CCCC2)c1)Nc1ccccc1,inactive: -17.9%
20,Cc1ccc(-n2ncc3c(Nc4cccc(C)c4)ncnc32)cc1,inactive: 66.6%
21,COc1cccc(-n2c(SCC(=O)N3CCCCC3)nc3c([nH]c4ccccc43)c2=O)c1,inactive: -8.53%
22,COc1ccc(NC(=O)c2c(N)c(C(=O)c3ccc(C)cc3)n3ccccc23)cc1OC,inactive: -6.78%
23,Cc1cc(C)c2c(-n3cccc3)c(C(=O)NCCCN3CCCCC3)sc2n1,inactive: -4.27%

row,SMILES,"activity change, negative = inhibition"
1,Cc1ccc(C)c(NC(=O)C2CCN(c3nn4c(=O)cc(C)nc4s3)CC2)c1,inactive: -16.4%
2,CCN1CCN(Cc2nc3cc(NC(=O)c4ccccc4[N+](=O)[O-])ccc3n2CC)CC1,inactive: -10.2%
3,Cc1ccccc1OCCSc1nc(C)c(Cc2ccccc2)c(=O)[nH]1,inactive: -22.3%
4,COc1ccc(-c2nn(C)c3sc(C(=O)N4CCN(c5ccccc5F)CC4)cc23)cc1OC,inactive: -11%
5,COc1ccccc1-c1cc(NC(=O)COc2ccccc2Cl)n(-c2ccccc2)n1,inactive: -3.29%
6,Cc1ccc(-c2nc3sccn3c2Nc2ccccc2C)cc1,inactive: -12.6%
7,COc1cccc(CNC(=O)CN2C(=O)CSc3ccc(S(=O)(=O)N(C)C)cc32)c1,inactive: 2.35%
8,CC1CCN(C(=O)c2cnn(-c3ccc(Cl)cc3)c2C2CCN(C(=O)OC(C)(C)C)CC2)CC1,inactive: -5.36%
9,CC(C)(C)C1CCc2c(sc(NC(=O)c3cccc(Cl)c3)c2C(N)=O)C1 (configuration not stated),inactive: -22.2%
10,CSCCC(NS(=O)(=O)c1ccc2c(c1)oc(=O)n2C)C(=O)N1CCN(c2cc(Cl)ccc2C)CC1 (configuration not stated),inactive: -25.8%
11,COc1ccc(NC(=O)CSc2oc(-c3ccc(C)cc3)nc2S(=O)(=O)c2ccc(C)cc2)c(OC)c1,inactive: -17.2%
12,CCN(CCCNC(=O)c1cc2cc3cc(OC)ccc3nc2s1)c1cccc(C)c1,inactive: 0.897%
13,Cc1cc2c(cc3c(SCc4ccc(Cl)cc4)nnc(C)n32)o1,inactive: -9.43%
14,Cc1cccc(N2CCN(C(=O)c3nn(C)c4c3CSc3ccccc3-4)CC2C)c1 (configuration not stated),inactive: -22%
15,COc1ccc2c(c1)c1c(c(=O)n(-c3cccc(C)c3)c(=O)n1CC(=O)Nc1c(C)cc(C)cc1C)n2C,inactive: -7.47%
16,Cc1cn(C)c(CC(=O)NCc2ccc(F)cc2)c1C(=O)O,inactive: -9.8%
17,Cc1cc(C)cc(NC(=O)CN2C(=O)COc3ccc(S(=O)(=O)Nc4ccccc4)cc32)c1,inactive: -9.1%
18,CCc1cccc(NC(=O)CNS(=O)(=O)c2ccc3nc(C)sc3c2)c1,inactive: -2.46%
19,CCOC(=O)c1ccccc1NC(=O)CSc1nc2ncccc2o1,inactive: -5.5%
20,Cc1ccc2nc(-c3ccncc3)c(Nc3ccccc3C)n2c1,inactive: -6.82%
21,CC1=C(c2ccc(C)cc2)S(=O)(=O)N=C1N1CCN(c2ccccc2)CC1,inactive: -5.4%
22,CCC(C)NC(=O)c1cn(CC)c2ccc(S(=O)(=O)N3CCCCC3)cc2c1=O (configuration not stated),inactive: 10.2% [at 11.5 µM]
23,CCn1cc(C(=O)NCc2ccccc2)c(=O)c2cc(S(=O)(=O)N3CCCCC3)ccc21,inactive: 11.6% [at 11.5 µM]

row,SMILES,"activity change, negative = inhibition"
1,Cc1ccc(NS(=O)(=O)c2ccc3c4c(cccc24)C(=O)N3)c(C)c1,inactive: -21.9%
2,Cc1ccc(C(NC(=O)Cc2cccs2)C(=O)Nc2ccc(C(C)C)cc2)cc1 (configuration not stated),inactive: -5.76%
3,CN(Cc1ccccc1)S(=O)(=O)c1ccc(F)c(C(=O)Nc2ccccc2C(F)(F)F)c1,inactive: -26.1%
4,Cc1cccc(-c2nc3c4ccccc4nc(NCc4ccccc4Cl)n3n2)c1,inactive: 46.5%
5,O=C(COc1ccccc1)N(Cc1cccnc1)c1nc2ccc(Cl)cc2s1,inactive: -3.74%
6,O=C(Nc1ccc(N2CCC(N3CCCCC3)CC2)c(C(=O)O)c1)c1ccccc1,inactive: -7.44%
7,CNS(=O)(=O)c1cn(CC(=O)N2CCN(c3ccc(OC)cc3)CC2)cc1S(=O)(=O)NC,inactive: 11.5%
8,CC(C)NC(=O)c1ccc(Cn2c(=O)c3cccn3c3cccnc32)cc1,inactive: -5.6%
9,COc1ccc(CC(=O)NC2CC(=O)N(c3ccc4c(c3)OCCO4)C2)cc1 (configuration not stated),inactive: -10.7%
10,Nc1c(C(=O)Nc2cccc(Cl)c2)sc2nc3c(cc12)CN(Cc1ccccc1)CC3,inactive: -22.5%
11,CCOC(=O)c1c(NC(=O)C(C)Sc2cn(CCNC(=O)c3ccc(OC)c(OC)c3)c3ccccc23)sc2c1CCC2 (configuration not stated),inactive: -27.1%
12,CCOCCCn1c(=N)c(S(=O)(=O)c2ccc(C)cc2)cc2c(=O)n3ccccc3nc21,inactive: 1.23%
13,O=C(NCCC1=CCCCC1)c1ccc2c(c1)N(Cc1ccc(F)cc1)C(=O)c1ccccc1S2(=O)=O,inactive: -23.5%
14,O=C(CSc1nncn2c1cc1sccc12)Nc1ccccc1C(F)(F)F,inactive: -23.2%
15,CCOC(=O)c1c(C)oc2nc(C)nc(NCc3ccc(C)cc3)c12,inactive: 7.87%
16,CCN1CCN(Cc2c(O)ccc3c(=O)c(Oc4ccccc4Cl)c(C(F)(F)F)oc23)CC1,inactive: -16.6%
17,CO[C@]1(NC(=O)CSC(F)F)C(=O)N2C(C(=O)O)=C(CSc3nnnn3CCO)CO[C@H]21,inactive: 7.29%
18,COCCCNc1nc2c(-c3ccccc3)nnn2c2ccccc12,inactive: -20.8%
19,COC(=O)c1ccccc1NC(=O)c1cc2nc(-c3ccccc3)cc(-c3ccccc3)n2n1,inactive: -1.27%
20,Cc1ccccc1C(=O)NCC(c1cccnc1)N1CCc2ccccc21 (configuration not stated),inactive: -25.3%
21,COc1ccc(NC(=O)C2(c3cccs3)CCOCC2)cc1Cl,inactive: -8.3%
22,COc1cccc(N2CCN(C(=O)c3c(C)oc4ncnc(N5CCCCC5)c34)CC2)c1,inactive: -22.6%
23,COC(=O)CCCCC(CCSS/C(CCO)=C(\C)N(C=O)Cc1cnc(C)nc1N)SC(C)=O (configuration not stated),inactive: -3.95%

row,SMILES,"activity change, negative = inhibition"
1,Cc1ccc(-c2nnc(Nc3ccc(O)cc3)c3ccccc23)cc1S(=O)(=O)NCc1nc2ccccc2[nH]1,inactive: -6.76% [at 11.5 µM]
2,O=C1CC(=O)Nc2cc(S(=O)(=O)N3CCOc4ccccc43)ccc2N1,inactive: -15.8%
3,CC(C)CN(CCCNC(=O)CN1C(=O)COc2ccc(S(=O)(=O)N3CCCCCC3)cc21)CC(C)C,inactive: -12%
4,COc1cc(NC(=O)CSc2nc(C)c(C(=O)Nc3ccccc3)c(-c3ccc(OC)c(OC)c3)c2C#N)c(OC)cc1Cl,inactive: -25.6%
5,Cc1ccc(Cl)cc1N1CCN(CCCNc2ncnc3onc(-c4ccc(F)cc4)c23)CC1,inactive: -6.16%
6,COc1ccccc1CNC(=O)CN1C(=O)CSc2ccc(S(=O)(=O)N(C)C)cc21,inactive: -7.71%
7,O=C(CCNS(=O)(=O)c1ccc2c(c1)CCN2C(=O)C1CC1)N1CCN(c2ccccc2F)CC1,inactive: -43.1%
8,CCOc1ccc(S(=O)(=O)N2CCN(c3ccc(Cl)c(Cl)c3)CC2)c2ccccc12,inactive: -1.88%
9,CCCn1c(CCC(=O)Nc2cc(Cl)c(OC)cc2OC)nc2cccnc21,inactive: -15.7%
10,Cc1ccc(C)c(NC(=O)CSc2ncc3c(n2)-c2ccc(Cl)cc2N(C)S3(=O)=O)c1,inactive: -0.814%
11,COc1ccc(NC(=O)CC2C(=O)N(c3ccc(C)cc3)C(=O)N2C2CCCCC2)cc1 (configuration not stated),inactive: -15.5%
12,O=C(CCSCc1ccccc1Cl)N1CCN(c2cccc(Cl)c2)CC1,inactive: -18.4%
13,CCn1nc(-c2ccccc2)c(-c2ccccc2)c(C(=O)Nc2nc(C)c(C(=O)N(C)C)s2)c1=O,inactive: 4.89%
14,O=C(O)C1CCC1,inactive: 1.21%
15,CCc1nc2cccnc2n1-c1ccc(CC(=O)Nc2ccc(C)cc2)cc1,inactive: -26.4%
16,O=C(Cn1c(=O)n(-c2ccccc2Cl)c(=O)c2sc3ccccc3c21)N1CCCC1,inactive: -13.1%
17,CCOc1ccc(CNC(=O)c2cnc3sc(N(CC)CC)nn3c2=O)cc1OC,inactive: -2.83%
18,Cc1cc(C)cc(NC(=O)CCc2nnc3n(CC(C)C)c(=O)c4ccccc4n23)c1,inactive: 0.36%
19,CC(C)N(Cc1ccccc1)C(=O)CN1C(=O)COc2ccc(S(=O)(=O)NC3CCCC3)cc21,inactive: -7.78%
20,Nc1cccc2c1CN(C1CCC(=O)NC1=O)C2=O (configuration not stated),inactive
21,Cc1ccc(NC(=O)CSc2nc3nccnc3c(=O)n2CCc2c[nH]c3ccccc23)cc1,inactive: -11.7%
22,CCOC(=O)c1ccc(OCCN2C[C@H](O)[C@@H](O)[C@H](O)[C@H]2CO)cc1,inactive: -0.415%
23,CCN(C(=O)CSc1nc2ccccc2n1CC(=O)Nc1ccccc1C)c1ccccc1,inactive: -2.77%
